From PubChem BioAssay AID1671194 (National Center for Advancing Translational Sciences (NCATS), 2021)
Among all 140,000 compounds or so, about 240 (0.17%) were called active. Inconclusive results, whose numbers are uncertain, are shown with a selection of clear calls. The call rests on the fitted dose curve; in most records, active means well fitted inhibition curve with a large enough effect; inconclusive means small, poorly fitted or top-dose-only effect; inactive means no such curve, though single readings can be large or run the other way. A potency beside an inconclusive call is a rough fit, not a confirmed value.

Assay: Primary qHTS assay for inhibitors of alpha-synuclein gene (SNCA) expression; further: nearly all actives have a fitted effect of over 45% in size
Conditions: HEK-293 SNCA-luciferase knock-in, luminescence, 24 h; series mostly up to 57.2 µM
Potency means the concentration at half of the fitted maximal effect; tags describe the fitted curve by direction and shape.

Potency, inactive:
Cc1ccc(Nc2ccnc(N3CCC(C(=O)NCC(F)F)CC3)n2)cc1, Cc1cccc2ncc(C(=O)N3CC[C@H](CO)[C@@H](O)C3)c(=O)n12, CC(C)C(=O)Nc1cc(C2CC2)nn1C, CCOc1ccc(NC(=O)N2CCC(N3CC4CC(C3)[C@H]3CCCC(=O)N3C4)CC2)cc1 (stereo partly drawn), COc1cc(F)c(F)c(Nc2ccc(I)cc2F)c1NS(=O)(=O)C1(C[C@H](O)CO)CC1, O=C(Cc1ccc(Cl)cc1)N1CCC2(CC1)NC(=O)N(c1ccc(F)cc1)N2, O=C(NCC(F)F)C1CCCN(c2nccc(Nc3ccccc3F)n2)C1 (stereo not drawn), CCc1ccccc1NC(=O)c1ccc2nc(C(C)C)oc2c1, Cn1cccc1C(=O)N1CC[C@H](NC(=O)NC2CCCCC2)[C@H]1C(=O)N1CCC[C@@H]1C(N)=O, COc1ccc(C2(C(=O)N3CCC(N4CC5CC(C4)[C@H]4CCCC(=O)N4C5)CC3)CC2)cc1 (stereo partly drawn), O=C(Nc1cccc(C(F)(F)F)c1)c1cc(-c2ccc3c(c2)OCCO3)on1, C=CCOC(=O)C1=C(C)N=C2SC=C(CC(=O)N3CCOCC3)N2C1c1ccc(C)cc1C (stereo not drawn), O=C(C1CCCN1C(=O)c1cccc(Cl)c1)N1CCC(c2ccccc2)CC1 (stereo not drawn), CC(C)(C)C(=O)N1CCC(C(=O)N2CCC(c3nc4ncccc4[nH]3)CC2)CC1, O=C(Cc1ccc(N(Cc2ccc(F)cc2)C(=O)c2ccco2)cc1)NCc1ccc(F)cc1, c1cc(-c2cc(-c3ccncc3)c3cncn3c2)c2cc[nH]c2c1, COc1cccc(-c2ccc(C(=O)N3CCC(NC(=O)c4ccccc4F)CC3)cc2)c1, O=C(NCCc1ccc(Cl)cc1)c1ccc2nnc(-c3cc(F)ccc3F)n2c1, CCc1noc(-c2ccn3c(CNC(=O)c4cc(F)ccc4F)nnc3c2)n1, O=C(Nc1ccccc1)N1CCCC(C(=O)N2CCC(N3Cc4cccn4C3=O)CC2)C1 (stereo not drawn), O=C(NCc1ccc(F)cc1)C1CCCCN1Cc1ccc(-c2cccs2)cc1 (stereo not drawn), Cc1cccc(CN2CCN(Cc3nc(-c4cccs4)oc3C)CC2CCO)n1 (stereo not drawn), CC1(COc2ccc3[nH]ccc3c2)COc2ccc(C(=O)N3CCOCC3)cc2N1 (stereo not drawn), Cc1ccsc1C(=O)NCc1nnc2ccc(-c3ccc(Cl)cc3)nn12, Cc1ccc(OCC(=O)c2ccc3c(c2)N(CCCC(=O)N2CCOCC2)C(=O)CO3)c(Cl)c1, C=CCCC(CN1CCCOCC1)Oc1ccc(C#N)cn1 (stereo not drawn), Nc1nc2c(ncn2COCCO)c(=O)[nH]1, CC1(c2ccccc2)N(Cc2ccccc2C#N)C(=O)OC12CCN(C(=O)Cc1ccc(O)cc1)CC2 (stereo not drawn), Cc1cccc(NC(=O)NCC2Cn3cccc3C(=O)N2C)c1 (stereo not drawn), O=C(Nc1cccc(C(F)(F)F)c1)N[C@H]1CO[C@H]2[C@@H]1OC[C@H]2O

Potency, inconclusive:
CC(C)(C)c1ccc(C(=O)NCC(c2ccco2)S(=O)(=O)c2ccc(F)cc2)cc1 (stereo not drawn) 39.8 µM [inhibitor, single point], O=C(O)COc1ccc(-c2nccc3c2C(=O)N(Cc2cccc(C(F)(F)F)c2)CC(CNC(=O)C2CCOCC2)O3)cc1 (stereo not drawn) 10 µM [inhibitor, partial curve, poor fit], Cn1cccc1CN1CCC2(CC1)NC(=O)c1ccccc1O2 35.5 µM [inhibitor, single point], COCCNC(=O)C(NC(=O)c1ccccc1Cl)C1CCN(C(=O)C2CCCC2)CC1 (stereo not drawn) 7.94 µM [inhibitor, single point], NC(CCCP(=O)(O)O)C(=O)O (stereo not drawn) 39.8 µM [inhibitor, single point], COc1cc(OC)c(-c2cc(C(=O)NCc3ccc(F)cc3)c3c(-c4ccccc4)[nH]nc3n2)cc1OC 39.8 µM [inhibitor, single point], OCC1CN(Cc2ccc(Br)cc2)CC12CCNCC2 (stereo not drawn) 39.8 µM [inhibitor, single point], Cc1ccccc1Cn1cc(-c2ccncc2)cc1C(=O)N1CCN(c2ccccc2)CC1 7.08 µM [inhibitor, full curve], COc1cccc(CNC(=O)Nc2cccc(-c3ccc(N4CCOCC4)nn3)c2)c1 39.8 µM [inhibitor, single point], COc1ccc2c(c1)nc1n2[C@@H](CNC(=O)c2ccncc2)COC1 1 µM [inhibitor, single point], Cc1ccc2oc(-c3cccc(NC(=O)Cc4ccc(Cl)cc4)c3)nc2c1 39.8 µM [inhibitor, single point], CCOC(=O)c1cccc(NS(=O)(=O)c2cc(-c3cnc(C4CC4)o3)ccc2C)c1 39.8 µM [inhibitor, single point], COc1ccc(S(=O)(=O)n2nc(C)c(S(=O)(=O)N3CCC(C)CC3)c2C)cc1OC 7.08 µM [inhibitor, single point], Cc1nc(-c2ccc(Cl)cc2)n(CC(=O)Nc2cccc(C(F)(F)F)c2)c(=O)c1CCO 39.8 µM [inhibitor, single point], O=C(Nc1cccc(C(F)(F)F)c1)O[C@@H]1CO[C@H]2[C@@H]1OC[C@@H]2n1cc(-c2ccccn2)nn1 25.1 µM [inhibitor, single point], COCC(=O)N1CCC(Oc2ccc(C(=O)N(C)C)cn2)CC1 6.31 µM [inhibitor, single point], O=C(Nc1cccc(C(F)(F)F)c1)N[C@H]1[C@H](O)[C@@H](Oc2ccccc2)[C@@H]2OC[C@H]1O2 56.2 µM [inhibitor, single point], Cc1cccc(NC(=O)CSc2nc(-c3ccco3)cc(C(F)(F)F)n2)c1C 1.58 µM [inhibitor, full curve], CCc1ccc(NC(=O)C(C)C2CCOCC2)cc1 (stereo not drawn) 39.8 µM [inhibitor, single point], O=C(O)CCn1ncc2cc(OCC3CCN(c4ncc(F)cn4)CC3)ccc21 12.6 µM [inhibitor, single point], CCN(CC)c1cc2c(cc1F)c(=O)c(S(=O)(=O)c1cccc(C)c1)cn2C 14.1 µM [inhibitor, single point], Cc1ccc([S+](=O)([O-])N2CCN(Cc3ccccc3-c3cccnc3)CC2)cc1 14.1 µM [inhibitor, single point], COc1ccccc1N1CCN(C(=O)Cn2c(N3CCc4ccccc4C3)nc(C)cc2=O)CC1 39.8 µM [inhibitor, single point], CN(C)Cc1ccc(C(=O)N[C@@H]2COCC[C@@H]2OCC(=O)O)o1 12.6 µM [inhibitor, partial curve, poor fit], Cc1cc(C)c(S(=O)(=O)NCc2ccc3c(c2)CCN3C(=O)c2ccccc2)c(C)c1 8.91 µM [inhibitor, full curve, poor fit], COc1ccc(CNC(=O)Cn2c(=O)c3cccn3c3cccnc32)cc1 39.8 µM [inhibitor, single point], COCc1ccc2c(c1)c(OC(C)(C)C(=O)NC1CCC(O)CC1)nn2CCC(C)C (stereo not drawn) 56.2 µM [inhibitor, single point], CN1CCC(NC(=O)C(C)(C)Oc2nn(Cc3cccc(Cl)c3)c3ccccc23)CC1 39.8 µM [inhibitor, single point], COc1ccc(C(=O)N2CCc3nc(C(C)C)nc(-c4ccc(Cl)cc4)c3CC2)cc1 39.8 µM [inhibitor, single point], Cc1cc2c(cc1S(=O)(=O)N(CCN(C)C)Cc1ccccc1)OCC(=O)N2 3.16 µM [inhibitor, full curve, poor fit], CC1=NS(=O)(=O)N(Cc2ccccc2)C=C1C(=O)OCc1nc(-c2ccc(C)cc2)no1 39.8 µM [inhibitor, single point], COCCNC(=O)C[C@@H]1C[C@H]2O[C@H](CNCc3ccccc3Cl)[C@@H](O)[C@H]2O1 2.51 µM [inhibitor, full curve, poor fit], CCOc1cc(=O)n2c(c1C(=O)NCC1CCCO1)CCCCC2 (stereo not drawn) 39.8 µM [inhibitor, single point], COc1ccc(-c2cn3c(n2)CO[C@@H](CNC(=O)CCC(=O)O)C3)cc1 2.51 µM [inhibitor, partial curve, poor fit], CN1CCCCCC(O)c2cc(C(=O)NCc3ccccn3)ccc21 (stereo not drawn) 8.91 µM [inhibitor, single point], Cc1cc2nc3n(c(=O)c2n1CC(=O)NC1CCCC1)CCCCC3 1.12 µM [inhibitor, partial curve, poor fit], CN(C(=O)[C@@H]1C[C@@H](c2cccc(C(F)(F)F)c2)N(Cc2cnn(C)c2)C1)c1ccccc1 39.8 µM [inhibitor, single point], Cc1cc(Nc2cccc(C(F)(F)F)c2)nc2ccc(NC(=O)Cc3ccc(Cl)cc3)cc12 35.5 µM [inhibitor, single point]
